# Measured values as given in ChEMBL document CHEMBL4888484, “Replenishing the malaria drug discovery pipeline: Screening and hit evaluation of the MMV Hit Generation Library 1 (HGL1) against asexual blood stage Plasmodium falciparum ,using a nano luciferase reporter read-out” (2022).
# About 540 (0.36%) of roughly 150,000 compounds showed an effect of 50% or more. This is one part of the list.
# Test system: Plasmodium falciparum
# Test: Primary screen in NF54 nanoGlo assay, in single point, at 2uM, 72h; a lower Z score goes with more inhibition
# Format: functional, Erythrocyte
# Settings: timepoint 72 hour
SMILES,% Inhibition [%],Z score
O=S(=O)(CCN1CCC[C@H]1c1ccsc1)c1ccccc1,-11,1.39
O=C(C1Cc2ccccc2N1)N1CCCC(CO)C1 (configuration not stated),3,-0.45
CCN1CCN(c2nc(Nc3ccccc3)c3nccnc3n2)CC1,-2,0.28
CC(C)CN1CCC[C@H](CNC(=O)c2cnc(-c3ccncc3)s2)C1,-10,1.99
O=C(NCCn1ccnc1-c1ccc(CO)o1)c1cccnc1,-13,1.42
O=C(N[C@@H]1CN(CC2CC2)C[C@H]1CO)c1ccccc1,-9,1.29
CCc1nnc(CNC(=O)[C@H]2CCOc3ccccc3C2)s1,0,0.03
NS(=O)(=O)c1cccc(CCC(=O)N[C@]23CCC[C@H]2OCC3)c1,4,-0.6
CC(C)(CNC(=O)N[C@H]1CCCNC1=O)c1ccccc1Br,-14,1.77
Cc1noc(C)c1CN1C(=O)[C@@H]2CC[C@H]1CN(C(=O)c1ccncc1)C2,-10,1.38
COc1cc(OC)cc(OC[C@H]2CCCN2CC(F)F)c1,-14,1.48
CCOC(=O)N1CCC(Nc2ccc3cn[nH]c3c2)CC1,3,-0.59
C=C(C)C1CCC(C)NC1c1ccccc1 (configuration not stated),-4,0.46
CC1CCN(S(=O)(=O)c2ccc(-c3nc4ccccc4s3)cc2)CC1,-3,0.43
O=C(C1CCCCCC1)N1CCn2c(nnc2C(F)(F)F)C1,-3,0.5
N#Cc1ccccc1/N=C1\CCCN1c1cccc(Cl)c1,6,-1.22
NC(=O)c1ccc(C(=O)N2CCCC[C@@]23CCOC3)s1,-6,1.09
CN(C[C@H]1CCCO1)C(=O)Cn1cncn1,-5,0.9
O=c1c2cccn2cnn1Cc1noc([C@@H]2CCCO2)n1,-4,0.9

SMILES,% Inhibition [%],Z score
CCCN(CC(=O)N1CCc2sccc2[C@@H]1COc1ccc(C)cc1)C(=O)c1ccc2c(c1)OCO2,2,-0.19
Cc1cccc(-c2nc3cc(C)ccc3cc2CN2CCN(CCCO)CC2)c1,-1,0.25
CN1CCC[C@H](CN(CCc2ccccc2)C(=O)CNC(=O)N(C)C)C1,-9,1.61
Cc1n[nH]c(C)c1Cc1n[nH]c(=O)n1[C@@H](C)C(=O)O,1,-0.23
Cc1ccc2c(c1)N(C(=O)[C@@H]1CCCCN1C(=O)c1cccnc1)CC2,-7,0.99
O=C(NC1(c2ncccn2)CCOCC1)[C@@H]1Cc2ccccc2O1,-22,2.37
O=C(NCc1ccc2c(c1)CCN2C(=O)c1ccccc1)c1cccc(F)c1,-17,3.18
CCCCC(=O)N1CCC(C(=O)N[C@@H]2CCCC[C@H]2NC(=O)c2ccccc2)CC1,0,0.04
COC1CCCN(CC2(O)CCCN(C(=O)OC(C)(C)C)CC2)C1 (configuration not stated),2,-0.26
CCCc1ccc(OCCCC(=O)NC(C)(C)C)cc1,-20,2.39
CC1CC(C)CN(C(=O)CCc2cccnc2)C1 (configuration not stated),-11,1.17
CC(C)(CNC(=O)CC(C1CC1)C1CC1)C(N)=O,-3,0.55
CC1(C)CCN(CCNC(=O)[C@H]2CC[C@@H](C(=O)N3CCCC3)O2)C1,-9,1.46
COc1cc(C(=O)N2CCC[C@H](C(=O)O)[C@@H]2C)ccc1Cl,-17,1.97
Cc1n[nH]c(C2CN(CC(=O)N(C)C(C)c3cccs3)CCO2)n1 (configuration not stated),2,-0.4
CCn1cc(CN2CC[C@H](N(CCc3noc(C4CCC4)n3)C(C)=O)C2)cn1,-8,1.3
O[C@H]1CN(Cc2ccc3c(c2)OCO3)CCN(c2ccncc2)C1,-6,0.71
Cc1cnc(N(C)CCCc2nccn2C)nc1N(C)C,6,-1.18
CN1CCN(Cc2noc(C[C@@H]3C[C@@H]4C=C[C@H]3C4)n2)CC1,-23,2.15

SMILES,% Inhibition [%],Z score
CC(C)(CO)NC(=O)Nc1ccccc1,-4,0.73
CC(C)n1cc(S(=O)(=O)N(C)CCOc2cccc(F)c2)cn1,-17,3.29
O=C(N[C@@H]1CN(Cc2cccnc2)C[C@H]1CO)c1cccnc1,-11,1.92
CC(=O)N(C)CC(=O)N1C(C)CN(C(=O)OC(C)(C)C)C(C)C1C (configuration not stated),-5,0.92
OC[C@@H](NCC1OCCO1)c1ccccc1,-10,1.33
O=C(N[C@H]1C[C@@H](C(=O)O)C1)c1cc(C2CC2)[nH]n1,-10,1.31
O=C(c1ccccn1)N1C[C@H]2CC[C@@H](C1)N(Cc1ccccn1)C2=O,-4,0.71
COc1cc2c(cc1OC)CN(C(=O)C[C@@H]1NC(=O)NC1=O)CC2,-5,0.81
CN1C[C@@H](Nc2ncnc3ccccc23)CCC1=O,-5,1.05
CC(C)(COC(=O)Nc1cccc(Cl)c1)NC(=O)COc1ccccc1,-1,0.08
CC(C)(C)n1nnc(CC(=O)Nc2ccc(-c3nc4ccccc4s3)cn2)n1,-5,0.81
COc1ccc(CN2CCN3CCCC3C2C)cc1O (configuration not stated),-2,0.3
N#Cc1c(N)sc2c1CCN(c1ncccn1)C2,-15,1.27
Cn1nnc2c(S(=O)(=O)N[C@H]3CCOC[C@@H]3OCC3CCC3)cccc21,-8,1.36
O=C1CNC(=O)[C@]12CCCc1ccccc12,4,-0.66
O=C(NCCc1cscn1)Nc1ccn(-c2ccccc2)n1,-11,1.67
CCC1CCC(C)N1CC(=O)Nc1cc(-n2nnnc2C)ccc1F (configuration not stated),-9,0.91
CCc1nc(CN2C(=O)COc3cc(S(=O)(=O)NC4CCCCC4)c(C)cc32)no1,2,-0.26
